# In the supplement of paper PMC8728848:
# The list shows a part of the results.
# B1: Clrb (Mus musculus) (protein)
# chain: ITGATKTEQIPVNKTYAACPQNWIGVENKCFYFSEYPSNWTFAQAFCMAQEAQLARFDNQDELNFLMRYKANFDSWIGLHRESSEHPWKWTDNTEYNNTIPIRGEERFAYLNNNGISSTRIYSLRMWICSKLNSYSLHCQTPFFPSGTKHHHHHHHHG
# What was measured:
# Assay in all cases: glycan array binding signal (z-score within array); higher = stronger binding
# Settings in all cases: glycan notation: IUPAC condensed, linker removed
# [1] = target: Neu5Ac(a2-3)GalNAc(b1-4)GlcNAc
# In short: (§1)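 Glycan array data came from 3228 arrays in the Consortium for Functional Glycomics database, and only arrays with an available protein sequence were kept. Glycan names were put into IUPAC-condensed notation, and columns mapping to the same glycan were averaged. The binding signal is a within-array Z-score, averaged across arrays of one protein sequence run at different concentrations or buffers and across linkers. A negative Z-score can be read as non-binding.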
# [2] = target: Neu5Ac(a2-3)[GalNAc(b1-4)]Gal(b1-4)Glc
# In short: as §1
# [3] = target: Neu5Ac(a2-3)[GalNAc(b1-4)]Gal(b1-4)GlcNAc
# In short: as §1
# [4] = target: Neu5Ac(a2-3)[GalNAc(b1-4)]Gal(b1-4)GlcNAc(b1-3)GalNAc
# In short: as §1
# [5] = target: Neu5Ac(a2-3)[Neu5Ac(a2-6)]GalNAc
# In short: as §1
# Neu5Ac(a2-6)Gal = target: Neu5Ac(a2-6)Gal
# In short: as §1
# [6] = target: Neu5Ac(a2-6)Gal(b1-3)GlcNAc(b1-3)[Gal(b1-4)GlcNAc(b1-6)]Gal(b1-4)Glc
# In short: as §1
# Neu5Ac(a2-6)Gal(b1-4)Glc = target: Neu5Ac(a2-6)Gal(b1-4)Glc
# In short: as §1
# [7] = target: Neu5Ac(a2-6)Gal(b1-4)GlcNAc
# In short: as §1
# [8] = target: Neu5Ac(a2-6)Gal(b1-4)GlcNAc(b1-2)Man
# In short: as §1
# [9] = target: Neu5Ac(a2-6)Gal(b1-4)GlcNAc(b1-2)Man(a1-3)Man(b1-4)GlcNAc(b1-4)GlcNAc
# In short: as §1
# [10] = target: Neu5Ac(a2-6)Gal(b1-4)GlcNAc(b1-2)Man(a1-3)[Gal(b1-4)GlcNAc(b1-2)Man(a1-6)]Man(b1-4)GlcNAc(b1-4)GlcNAc
# In short: as §1
# [11] = target: Neu5Ac(a2-6)Gal(b1-4)GlcNAc(b1-2)Man(a1-3)[GlcNAc(b1-2)Man(a1-6)]Man(b1-4)GlcNAc(b1-4)GlcNAc
# In short: as §1
# [12] = target: Neu5Ac(a2-6)Gal(b1-4)GlcNAc(b1-2)Man(a1-3)[GlcNAc(b1-4)][Neu5Ac(a2-6)Gal(b1-4)GlcNAc(b1-2)Man(a1-6)]Man(b1-4)GlcNAc(b1-4)GlcNAc
# In short: as §1
# [13] = target: Neu5Ac(a2-6)Gal(b1-4)GlcNAc(b1-2)Man(a1-3)[Man(a1-6)]Man(b1-4)GlcNAc(b1-4)GlcNAc
# In short: as §1
# [14] = target: Neu5Ac(a2-6)Gal(b1-4)GlcNAc(b1-2)Man(a1-3)[Neu5Ac(a2-3)Gal(b1-4)GlcNAc(b1-2)Man(a1-6)]Man(b1-4)GlcNAc(b1-4)GlcNAc
# In short: as §1
# [15] = target: Neu5Ac(a2-6)Gal(b1-4)GlcNAc(b1-2)Man(a1-3)[Neu5Ac(a2-6)Gal(b1-4)GlcNAc(b1-2)Man(a1-6)]Man(b1-4)GlcNAc(b1-4)GlcNAc
# In short: as §1
# [16] = target: Neu5Ac(a2-6)Gal(b1-4)GlcNAc(b1-2)Man(a1-3)[Neu5Ac(a2-6)Gal(b1-4)GlcNAc(b1-2)Man(a1-6)]Man(b1-4)GlcNAc(b1-4)[Fuc(a1-6)]GlcNAc
# In short: as §1
# [17] = target: Neu5Ac(a2-6)Gal(b1-4)GlcNAc(b1-2)Man(a1-6)Man(b1-4)GlcNAc(b1-4)GlcNAc
# In short: as §1
# [18] = target: Neu5Ac(a2-6)Gal(b1-4)GlcNAc(b1-2)Man(a1-6)[Gal(b1-4)GlcNAc(b1-2)Man(a1-3)]Man(b1-4)GlcNAc(b1-4)GlcNAc
# In short: as §1
# [19] = target: Neu5Ac(a2-6)Gal(b1-4)GlcNAc(b1-2)Man(a1-6)[GlcNAc(b1-2)Man(a1-3)]Man(b1-4)GlcNAc(b1-4)GlcNAc
# In short: as §1
# [20] = target: Neu5Ac(a2-6)Gal(b1-4)GlcNAc(b1-2)Man(a1-6)[Man(a1-3)]Man(b1-4)GlcNAc(b1-4)GlcNAc
# In short: as §1
# [21] = target: Neu5Ac(a2-6)Gal(b1-4)GlcNAc(b1-2)[Neu5Ac(a2-6)Gal(b1-4)GlcNAc(b1-4)]Man(a1-3)[GlcNAc(b1-4)][Neu5Ac(a2-6)Gal(b1-4)GlcNAc(b1-2)[Neu5Ac(a2-6)Gal(b1-4)GlcNAc(b1-6)]Man(a1-6)]Man(b1-4)GlcNAc(b1-4)GlcNAc
# In short: as §1
# [22] = target: Neu5Ac(a2-6)Gal(b1-4)GlcNAc(b1-2)[Neu5Ac(a2-6)Gal(b1-4)GlcNAc(b1-4)]Man(a1-3)[GlcNAc(b1-4)][Neu5Ac(a2-6)Gal(b1-4)GlcNAc(b1-4)Man(a1-6)]Man(b1-4)GlcNAc(b1-4)GlcNAc
# In short: as §1
# [23] = target: Neu5Ac(a2-6)Gal(b1-4)GlcNAc(b1-2)[Neu5Ac(a2-6)Gal(b1-4)GlcNAc(b1-6)]Man(a1-6)[Neu5Ac(a2-6)Gal(b1-4)GlcNAc(b1-2)Man(a1-3)][GlcNAc(b1-4)]Man(b1-4)GlcNAc(b1-4)GlcNAc
# In short: as §1
# [24] = target: Neu5Ac(a2-6)Gal(b1-4)GlcNAc(b1-3)Gal(b1-3)GlcNAc
# In short: as §1
# [25] = target: Neu5Ac(a2-6)Gal(b1-4)GlcNAc(b1-3)Gal(b1-4)GlcNAc
# In short: as §1
# [26] = target: Neu5Ac(a2-6)Gal(b1-4)GlcNAc(b1-3)Gal(b1-4)GlcNAc(b1-2)Man(a1-3)[Neu5Ac(a2-6)Gal(b1-4)GlcNAc(b1-3)Gal(b1-4)GlcNAc(b1-2)Man(a1-6)]GalNAc
# In short: as §1
# [27] = target: Neu5Ac(a2-6)Gal(b1-4)GlcNAc(b1-3)Gal(b1-4)GlcNAc(b1-3)Gal(b1-4)GlcNAc
# In short: as §1
# [28] = target: Neu5Ac(a2-6)Gal(b1-4)GlcNAc(b1-3)Gal(b1-4)GlcNAc(b1-3)Gal(b1-4)GlcNAc(b1-2)Man(a1-3)[Neu5Ac(a2-6)Gal(b1-4)GlcNAc(b1-3)Gal(b1-4)GlcNAc(b1-3)Gal(b1-4)GlcNAc(b1-2)Man(a1-6)]GalNAc
# In short: as §1
# [29] = target: Neu5Ac(a2-6)Gal(b1-4)GlcNAc(b1-3)Gal(b1-4)GlcNAc(b1-3)GalNAc
# In short: as §1
# [30] = target: Neu5Ac(a2-6)Gal(b1-4)GlcNAc(b1-3)Gal(b1-4)GlcNAc(b1-3)[Neu5Ac(a2-6)Gal(b1-4)GlcNAc(b1-3)Gal(b1-4)GlcNAc(b1-6)]GalNAc
# In short: as §1
# [31] = target: Neu5Ac(a2-6)Gal(b1-4)GlcNAc(b1-3)Gal(b1-4)GlcNAc(b1-6)[Gal(b1-3)]GalNAc
# In short: as §1
# [32] = target: Neu5Ac(a2-6)Gal(b1-4)GlcNAc(b1-3)Gal(b1-4)[Fuc(a1-3)]GlcNAc(b1-3)Gal(b1-4)[Fuc(a1-3)]GlcNAc
# In short: as §1
# [33] = target: Neu5Ac(a2-6)Gal(b1-4)GlcNAc(b1-3)GalNAc
# In short: as §1
# [34] = target: Neu5Ac(a2-6)Gal(b1-4)GlcNAc(b1-3)[Neu5Ac(a2-6)Gal(b1-4)GlcNAc(b1-6)]GalNAc
# In short: as §1
# [35] = target: Neu5Ac(a2-6)Gal(b1-4)GlcNAc(b1-6)GalNAc
# In short: as §1
# [36] = target: Neu5Ac(a2-6)Gal(b1-4)GlcNAc(b1-6)[Gal(b1-3)GlcNAc(b1-3)]Gal(b1-4)Glc
# In short: as §1
binder,measurement,setting,value
B1,glycan array binding signal (z-score),[1],-0.262
same,glycan array binding signal (z-score),[2],-0.329
same,glycan array binding signal (z-score),[3],-0.318
same,glycan array binding signal (z-score),[4],-0.464
same,glycan array binding signal (z-score),[5],-0.311
same,glycan array binding signal (z-score),Neu5Ac(a2-6)Gal,-0.171
same,glycan array binding signal (z-score),[6],-0.271
same,glycan array binding signal (z-score),Neu5Ac(a2-6)Gal(b1-4)Glc,-0.192
same,glycan array binding signal (z-score),[7],-0.219
same,glycan array binding signal (z-score),[8],-0.19
same,glycan array binding signal (z-score),[9],-0.275
same,glycan array binding signal (z-score),[10],-0.478
same,glycan array binding signal (z-score),[11],-0.472
same,glycan array binding signal (z-score),[12],-0.349
same,glycan array binding signal (z-score),[13],-0.44
same,glycan array binding signal (z-score),[14],-0.434
same,glycan array binding signal (z-score),[15],-0.185
same,glycan array binding signal (z-score),[16],-0.37
same,glycan array binding signal (z-score),[17],-0.393
same,glycan array binding signal (z-score),[18],-0.36
same,glycan array binding signal (z-score),[19],-0.222
same,glycan array binding signal (z-score),[20],-0.503
same,glycan array binding signal (z-score),[21],-0.398
same,glycan array binding signal (z-score),[22],-0.459
same,glycan array binding signal (z-score),[23],-0.03
same,glycan array binding signal (z-score),[24],-0.345
same,glycan array binding signal (z-score),[25],-0.402
same,glycan array binding signal (z-score),[26],-0.362
same,glycan array binding signal (z-score),[27],-0.172
same,glycan array binding signal (z-score),[28],-0.017
same,glycan array binding signal (z-score),[29],-0.628
same,glycan array binding signal (z-score),[30],-0.514
same,glycan array binding signal (z-score),[31],-0.197
same,glycan array binding signal (z-score),[32],-0.211
same,glycan array binding signal (z-score),[33],-0.515
same,glycan array binding signal (z-score),[34],-0.479
same,glycan array binding signal (z-score),[35],-0.437
same,glycan array binding signal (z-score),[36],-0.442
